This is an account of results in the RNAGym collection of RNA variant scans (doi:10.1093/nar/gkz1192).

Read counts are not given, so values of variants with three or more changes are uncertain.

The labels stand for the following.
B1: CPEB3 Ribozyme (parent)
chain: UAACAGGGGGCCACAGCAGAAGCGUUCACGUCGCAGCCCCUGUCAGAUUCUGGUGAAUCUGCGAAUUCUGCUGUAUAUCUC

This series covers variants of B1. Nature of the series: self-cleavage, relative activity (ratio to wild type); higher = more cleavage; in vitro, sequencing. In short, it runs like this: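 For each CPEB3 ribozyme variant, relative activity is its cleaved/total read fraction divided by the unmutated ribozyme's. Barcoded error-prone PCR libraries were transcribed by T7 RNA polymerase (5 hours, 37°C) and held in DNase I for 15 min before an EDTA stop, with cleavage occurring throughout. Template-switching reverse transcription and Illumina sequencing were used to read the RNAs. A 5-read minimum applied, and results are the mean of three batches.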
On to A13U U66C U80C, for which the self-cleavage was 0.53.
With A13U U31C C79A, the self-cleavage was determined as 1.06.
In the case of C14U U60A C79G, the self-cleavage came to 1.04.
The value for C14A U31A U49A U74C A75U was 0.69; that for A13U U48C A56G U72A was 0.31; that for A13U U74C U78C was 1.27.
The value for A13U U31A U54C was 0.88; that for C14G C23U C40U U49C A56G was 0.09.
To C14U A20G A45G A47U U69A belongs 0.05.
Regarding C14A U41C A57G U66A, the self-cleavage is 0.57.
To A13U U49C U72C belongs 0.4; to A13U U51C U72A, 0.83; to C14U A20G A65G U66C, 0.14.
The value for A13U U41C U43C A47U U51C U66C was 0.14; that for C14A A15G U25G C27U U51C was 0.2.
Turning to A13U U60A A64U U76C, the self-cleavage was 0.31.
To C14U A35U U58C U69C belongs 0.17; to C14U A56G A57G, 0.44.
The value for C14A C32U C50U U54C A57C was 0.06; that for A13U U58A A65C U80C C81U was 0.14; that for A13U U43A U69C U72C U76C was 0.4.
To C14U G19U U76C U78A belongs 0.07; to C14U U26C G42U, 0.15; to C14U U26A A35G, 1.29.
As to A13U U60C U66C U74C, the self-cleavage was 0.27.
The value for A13U U41A A64G A65U U74C was 0.13; that for A13U U31C A56U U60C A64G was 0.11; that for C14U A18G A57U was 0.22.
Regarding A13U U41A C44U A65G, the self-cleavage amounted to 0.14.
The value for A13U U58G U67C was 0.36; that for A13U U54C U60A U72C C79A was 0.8.
C14U U51A G70C: the self-cleavage amounted to 0.27.
To C14A A20G U49G belongs 0.7.
To C14U C62G A65U belongs 0.31.
To C14A A21G A65G U66C U80C belongs 0.22; to C14U U31C U78A, 0.73; to C14U A56G U66C, 0.3.
As to C14U C17A A18U, the self-cleavage came out at 0.49.
In the case of C14A A15G G46A U74C, the self-cleavage is 0.12.
The value for A13U U41C U54C U67A U72A U76A was 0.29; that for A13U U51C U66C was 0.39; that for C14U A18U U26A A35G A47G U72C U74C was 0.34.
The value for C14U A28U A77G was 1.05.
To C14U A56G A57G U78C belongs 0.49.
For the variant C14U A35U A57G U69C, the self-cleavage was 0.32.
The value for C14U A64G U76C was 0.74; that for C14A U49C A75G was 0.25.
To A13U U31C A35G U80C belongs 1.22; to C14G A45U A56U, 0.19; to C14A A18G A47U A56G U69C, 0.57.
In the case of C14U A20G U26C C38U, the self-cleavage was found to be 0.05.
The value for C14U A15U C32U U67C was 0.08.
The value for A13U U31A U72C was 0.22; that for A13U U31A U72A was 0.41.
With C14A A18U C62G, the self-cleavage came to 0.19.
To C14A U43C U74C belongs 1.15; to A13U U43A G53A C68A U80C, 0.35.
To C14U G24U U49A A65G belongs 0.12; to C14U A15U A56G, 0.75.
To A13U U43C U51A U72C belongs 0.72.
With A13U U41C U54C, the self-cleavage amounted to 1.19.
On to C14U U26C A47U U54C C62U A64G U66C, for which the self-cleavage was 0.05.
To A13U U43A U49C U78C belongs 0.49.
To C14U G33A U48C belongs 0.16; to C14A A15G G33C G61A G70A, 0.23; to C14A U60C U67A, 0.24.
To A13U U41C A47U U69C U80A belongs 0.13.
With A13U U67C U78C, the self-cleavage stood at 0.34.
To C14A A20C G24U U26A U31C U41C A64G belongs 0.05.
Consider A13U U41C A57G U78A, for which the self-cleavage was determined as 1.19.
To C14U A20U U26C A57G U67C belongs 0.06; to A13U U49A U58C, 0.19; to A13U U31C A35U U60G, 0.09.
The value for C14A G63A U72C was 1.08; that for C14A A20G C27A C38U was 0.22.
As to C14U U54C A65U U67C, the self-cleavage was 0.16.
Consider C14A A45C C62A A64G A75G, for which the self-cleavage is 0.07.
Regarding A13U U60A U80C, the self-cleavage was found to be 0.99.
The value for C14U A20G C68A G70C was 0.19.
The value for C14G A45U U48C was 0.14; that for A13U U31C A45G U69G was 0.13.
To A13U U54C U72G A75U belongs 1.17; to C14U A35U U51A, 0.77.
Turning to C14A U26A A47G, the self-cleavage was 0.88.
As for A13U U51C U69A, the self-cleavage is 0.55.
The value for C14U G46U U76A A77G was 0.26; that for A13U U49C U51A was 0.56.
To C14U U26A G33A U48C belongs 0.13; to C14A A15U U25C U72C U80A, 0.28; to A13U U48C G61U U67C, 0.35.
To C14U U26C U49A U51A U54C U60C belongs 0.08.
In the case of A13U U58C U74A, the self-cleavage amounted to 0.6.
To C14U U41C A45U U54A G61A A65G U78A belongs 0.23; to A13U U41C U49A U69C, 0.39.
To A13U U67C U69C belongs 0.18.
The value for C14G C40G U74C was 0.29; that for C14G A15U U51G was 0.7.
Take C14U U41C U60C G63U A75G: the self-cleavage was determined as 0.71.
To C14U G19C A64G U78A belongs 0.2.
The value for C14U U48A A56G was 0.68.
To C14U C44U G46U A77G belongs 0.14.
For the variant A13U U58C U72A, the self-cleavage was determined as 0.15.
The value for C14A U43A U49G was 0.78; that for C14U U25C A35G A45U was 0.06; that for A13U U48C U51C U74C was 1.
To A13U U54C U72C U74C U80C belongs 1.22; to C14A A20U U43C G46A U69C, 0.06.
The value for A13U U31G A35G C37A was 0.35.
In the case of A13U U41A U49C A65G U80G, the self-cleavage is 0.04.
To A13U U31C U41A U49C U58C belongs 0.07; to A13U U51C A64G, 1.14.
The value for C14U A20G U69A was 0.51; that for C14U A35U U74A was 1.17; that for A13U U54A A56U U74C was 1.24.
To C14U U26C A35G A64G belongs 1.18; to C14U A15U A20G U25C A28U, 0.22.
With C14U U41C A45U A57G, the self-cleavage was 0.53.
C14U A45G U66C A77U: the self-cleavage was found to be 0.54.
The value for A13U U31A U51C A77U was 0.18; that for C14A A45G A47U U60C G63C U69C was 0.02.
To C14U A35U U41C U69C belongs 0.26.
The value for C14U U26C U51C A65G was 0.23.
For the variant C14U C40G A65G U72C A77U, the self-cleavage turned out to be 0.08.
The value for C14U U26C A35G U41C U60C U66C was 0.18; that for C14U A18G A47U A56G was 0.36; that for C14U U26A U41A was 0.09.
To A13U U31C U54A A75G belongs 1.15; to A13U U41C A45G A47G U72C U80C, 0.8; to C14U A28G U41C A57G C62U, 0.12.
To C14G A35G U43G A65G belongs 0.18.
As to A13U U49C U54C A64U, the self-cleavage was determined as 0.11.
Take C14A A15U U43A U54C U60A U66A: the self-cleavage is 0.2.
With C14A U41C G70A U72C, the self-cleavage amounted to 0.4.
C14A A15C U43C U51G A77G: the self-cleavage amounted to 0.6.
The value for C14A A21G G63C U78C was 0.41.
To C14U A56U U80C belongs 1.
To C14U A20G A47G U69C belongs 0.22; to C14A A20G A35G A45G U51C G63C U69C, 0.26.
With C14G U41C U58A A65G C79A, the self-cleavage turned out to be 0.24.
The value for A13U U41C U43C U54A U60C A64C was 0.11; that for C14U U31A A35U U58C U69C was 0.05; that for A13U U31C U74C was 1.23.
The value for A13U U41C G61C A75U U80A was 0.48; that for A13U U43A U66C was 0.68; that for A13U U51C C62U U69A U72C U76C was 0.42.
As for A13U U74A U80A, the self-cleavage is 1.29.
To A13U U43A U67G C81U belongs 0.38; to C14A A15U A45G, 0.4.
To A13U U41A U49C U58C belongs 0.39; to C14U U43C A56C A64G U66C, 0.15.
To C14U U31A C32G U48C belongs 0.09; to C14U A21G A65G, 0.28.
Turning to A13U U48C U74C, the self-cleavage stood at 0.95.
The value for A13U U48C A56G A64U was 0.18; that for C14U G19A U26A A35G U41C was 0.22; that for C14A A20G A35U U41A U54A U58C was 0.06.
To C14A A15G A28C belongs 0.56; to A13U U31C G63A A65G, 0.47; to C14U A35G G70U, 1.15.
The value for A13U U43A U51C U72C U76C was 0.76; that for C14U G24A U67G U78C was 0.12; that for C14A U41A U43C U49C U58A U72A was 0.08.
Take A13U U66C U67A: the self-cleavage came to 0.27.
The value for C14U A47C U72C U80A was 0.94.
As to C14U U31A G33U U43G G46U A47U U67C, the self-cleavage is 0.09.
To C14A A18C A64G A77G belongs 0.16; to A13U U51C U67C U76A U80C, 0.62.
